{"source": "PubChem BioAssay AID1240", "about": "(Sanford-Burnham Center for Chemical Genomics, 2008)", "note": "The whole screen tested about 50,000 compounds, of which about 800 (1.6%) showed an effect of 50% or more. This is one part of the list.", "data": [{"molecular_target": "Bcl-2-like protein 10 (Homo sapiens) (UniProt Q9HD36)", "sequence (Q9HD36 whole entry, looked up)": "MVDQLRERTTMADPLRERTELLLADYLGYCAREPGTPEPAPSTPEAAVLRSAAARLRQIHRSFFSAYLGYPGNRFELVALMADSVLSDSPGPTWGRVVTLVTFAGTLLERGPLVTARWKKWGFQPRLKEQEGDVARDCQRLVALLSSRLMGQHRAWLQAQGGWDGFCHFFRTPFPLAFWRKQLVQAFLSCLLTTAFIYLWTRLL", "experiment": "TR3 peptide-Bcl-B binding displacers, biochemical primary FP assay, phenotype converters (AID 1240);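 also: 0% = Bcl-B with tracer peptide and DMSO and 100% = tracer peptide lacking Bcl-B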", "details": "GST-Bcl-B / FITC-TR3 peptide fluorescence polarization; stronger effect = higher value; compound at 3.75 mg/L", "units": {"displacement": "%"}, "values": [{"molecule": "COc1ccccc1N1C(=O)CC(Nc2ccccc2)C1=O", "note": "(stereo not given)", "displacement": -10.3}, {"molecule": "CCCN=C(C)C1=C(O)C(C(=O)OC)C(C)(C)CC1=O", "note": "(stereo not given)", "displacement": -14.8}, {"molecule": "CC(C)c1nccn1S(=O)(=O)c1ccc(Cl)cc1Cl", "displacement": 2.6}, {"molecule": "CC1=CC(C)(C)C(C#N)(C#N)C(N)=C1C#N", "displacement": 15}, {"molecule": "O=C(Nc1ccccc1)Nc1nnc(SCc2ccc(Cl)cc2Cl)s1", "displacement": 6.2}, {"molecule": "COC(=O)C(=C/C=C/c1cccnc1)C(=O)OC", "displacement": 1.7}, {"molecule": "Clc1ccc(OCCCCN2CCOCC2)cc1", "displacement": -8}, {"molecule": "Cc1ccc(C2C(C(=O)OC(C)C)C(=O)CC(C)(O)C2C(=O)OC(C)C)cc1", "note": "(stereo not given)", "displacement": -6.8}, {"molecule": "COc1ccc(-c2cn3cc(Cl)ccc3n2)cc1Br", "displacement": 11.2}, {"molecule": "COC(=O)CCC(C(=O)NC(=O)NC(c1ccccc1)c1ccccc1)N1C(=O)c2ccccc2C1=O", "note": "(stereo not given)", "displacement": 0.8}, {"molecule": "CC(C)COc1ccc(C(=O)Nc2nc(-c3ccccc3)cs2)cc1", "displacement": -6.3}, {"molecule": "CN(C)CCCCCCNC(=O)/C=N\\O", "displacement": 13.7}, {"molecule": "O=C(/C=C/c1ccc(F)cc1)Nc1ccccc1Cl", "displacement": 9.7}, {"molecule": "CCN(CC)c1ccc(C=C2C(=O)NC(=S)NC2=O)cc1[N+](=O)[O-]", "displacement": 27}, {"molecule": "O=C(N/N=C/c1ccccc1O)c1c[nH]c2ccccc12", "displacement": -1.1}, {"molecule": "COc1ccc(C2=C/C(=C/c3ccccc3OC)C(=O)O2)cc1", "displacement": 85.1}, {"molecule": "C=CCNC(=O)CN(c1ccc(F)cc1)S(=O)(=O)c1ccccc1", "displacement": -7.4}, {"molecule": "COc1ccc(/C=N/Nc2nc(C)cc(-c3ccccc3)n2)c(OC)c1", "displacement": -10.3}, {"molecule": "COc1ccc(C2/C(=C(\\O)c3ccc(Cl)cc3)C(=O)C(=O)N2CCCCCC(=O)O)c(OC)c1", "note": "(stereo not given)", "displacement": -0.6}, {"molecule": "O=C(Nc1ccc(O)c(-c2nc3ccccc3s2)c1)c1cc2ccccc2oc1=O", "displacement": 4.4}, {"molecule": "CCOc1ccc(C2/C(=C(\\O)c3ccc(C)cc3)C(=O)C(=O)N2CCCC(=O)O)cc1", "note": "(stereo not given)", "displacement": -12.1}, {"molecule": "C[n+]1ccccc1/C=C/c1ccc(O)cc1", "displacement": 1.8}, {"molecule": "CCOC(=O)C1=C(O)/C(=C/c2ccco2)SC1=Nc1ccc(Cl)cc1", "displacement": -19.5}, {"molecule": "O=C1SC(Nc2ccc(O)cc2)C(=O)N1c1ccccc1", "note": "(stereo not given)", "displacement": 9.5}, {"molecule": "CS(=O)(=O)c1ccc2nc(NC(=O)c3ccccc3Cl)sc2c1", "displacement": 16.4}, {"molecule": "Cc1ccc(S(=O)(=O)N/N=C/c2ccc(-c3ccc([N+](=O)[O-])cc3Cl)o2)cc1", "displacement": -9.8}, {"molecule": "COc1ccc(N/C=C/C(=O)c2ccco2)cc1", "displacement": 11.7}, {"molecule": "Cc1ccc(-c2nc(O)c(C3=c4cc(C)cc(C)c4=NC3=O)s2)cc1", "displacement": -50.9}, {"molecule": "COc1ccc(NC(=O)c2cc([N+](=O)[O-])ccc2N2CCN(C)CC2)cc1", "displacement": 1.8}, {"molecule": "COc1cc(OC)c(C2N(Cc3ccccc3)CCN2Cc2ccccc2)cc1Br", "displacement": -0.1}, {"molecule": "CN(C)CCCNC(=O)N1CCOCC1", "displacement": 11}, {"molecule": "COc1ccc(C(C[N+](=O)[O-])C2(c3ccc(OC)c(OC)c3)C(=O)c3ccccc3C2=O)cc1", "note": "(stereo not given)", "displacement": -1.7}, {"molecule": "Brc1ccc2nc(N/N=C/c3ccccc3)nc(-c3ccccc3)c2c1", "displacement": -6}, {"molecule": "CC(C)COc1ccc(C(=O)Nc2cc([N+](=O)[O-])ccc2Cl)cc1", "displacement": -1.1}, {"molecule": "O=C(c1ccc(Br)cc1)c1cc(Cl)ccc1NCc1ccccc1", "displacement": -2.1}, {"molecule": "Cc1ccc(-c2cc(C(F)(F)F)n3ncc(C(=O)NCc4cccnc4)c3n2)cc1", "displacement": -0.4}, {"molecule": "O=C(CN1C(=O)CCC1=O)NCCc1ccccc1", "displacement": -5.5}, {"molecule": "COC(=O)C(C)CNCc1ccccc1", "note": "(stereo not given)", "displacement": 15.6}, {"molecule": "COc1ccc(Br)cc1CN1CCN(Cc2cccc([N+](=O)[O-])c2)CC1", "displacement": -19.8}, {"molecule": "COc1cccc(OC)c1C(=O)Nc1ccc2ccccc2c1", "displacement": 7.9}, {"molecule": "O=C(N/N=C\\c1ccc(Cl)cc1Cl)c1cncc(Br)c1", "displacement": 6.5}, {"molecule": "Cc1cccc(NC(=O)CCCOc2ccccc2)c1C", "displacement": -4.4}, {"molecule": "COC(=O)c1ccc(C(=O)OC)c(NC(=O)/C=C/c2ccc([N+](=O)[O-])cc2)c1", "displacement": -7.2}, {"molecule": "O=C1C(Cl)=C(Nc2cccc(C(F)(F)F)c2)C(=O)c2ccccc21", "displacement": 1.1}, {"molecule": "COc1ccc(NC(=O)C(=O)N/N=C/c2ccc(OC)c(OC)c2)cc1", "displacement": 6.2}, {"molecule": "Cc1cc2oc(=O)cc(C)c2cc1NC(=O)C(C)C", "displacement": 21.2}, {"molecule": "COc1nc2nonc2nc1Nc1ccc(C)cc1", "displacement": 7.8}, {"molecule": "CCOc1ccccc1NC(=O)c1c(NC(=O)C(C)Oc2cccc(Cl)c2)sc2c1CCC2", "note": "(stereo not given)", "displacement": 7.6}, {"molecule": "Cc1ccc(/C=C2\\SC(=S)N(CCc3ccccc3)C2=O)cc1", "displacement": 17}, {"molecule": "O=C(COc1ccc(Br)cc1)Nc1cccc(NC(=O)c2ccccc2Cl)c1", "displacement": 2.4}, {"molecule": "CCC(C(=O)Nc1cc(C)cc(C)n1)c1ccccc1", "note": "(stereo not given)", "displacement": 8.3}, {"molecule": "COc1ccc2oc(-c3ccccc3C)cc(=O)c2c1", "displacement": 10.6}, {"molecule": "O=C(O)c1cccc(N2C(=O)C3C4C=CC(CC4)C3C2=O)c1", "note": "(stereo not given)", "displacement": 7.8}, {"molecule": "O=C(Nc1ccccc1-c1nc2ccccc2s1)c1cccc([N+](=O)[O-])c1", "displacement": 2.3}, {"molecule": "O=c1cnnc(N/N=C\\c2ccc(C(F)(F)F)cc2)[nH]1", "displacement": -13.1}, {"molecule": "CCOC(=O)c1c(-c2ccccc2)oc2ccc(OC(C)C(=O)OCC)cc12", "note": "(stereo not given)", "displacement": 8.1}, {"molecule": "O=C1CSC(=O)N1CNc1cc(Cl)ccc1Cl", "displacement": 10.5}, {"molecule": "COc1ccc(NC(=O)C2C3CCC(C3=C(C)C)C2C(=O)O)cc1", "note": "(stereo not given)", "displacement": 0}, {"molecule": "CC(=O)C1=C(O)C(=O)N(CC2CCCO2)C1c1ccccc1F", "note": "(stereo not given)", "displacement": -1.6}, {"molecule": "COc1ccccc1/C=C1\\SC(=S)N(NC(=O)c2ccccc2Cl)C1=O", "displacement": 3.9}, {"molecule": "Cc1ccc(OCC(=O)Nc2cc([N+](=O)[O-])ccc2C)c(C(C)(C)C)c1", "displacement": 6.9}, {"molecule": "CC1(C)CC(=O)C(C2(C3=C(O)CC(C)(C)CC3=O)C(=O)Nc3ccccc32)C(=O)C1", "note": "(stereo not given)", "displacement": 19.1}, {"molecule": "Cc1ccc(Nc2cc(N3CCOCC3)c(N)c3c2C(=O)c2ccccc2C3=O)cc1", "displacement": 7.2}, {"molecule": "CC(=O)Nc1ccc(S(=O)(=O)Nc2ccc(Oc3ccccc3)cc2)cc1", "displacement": -12.7}, {"molecule": "CC(C)(C)c1ccc(OCC(=O)Nc2ccc(C(=O)O)cc2)cc1", "displacement": 2}, {"molecule": "O=C1NC(=S)N(c2ccc(F)cc2)C(=O)/C1=C/c1cc(Cl)c(O)c(Cl)c1", "displacement": -20}, {"molecule": "c1ccc2sc(-c3ccc(NCc4ccc5c(c4)OCO5)cc3)nc2c1", "displacement": 11.4}, {"molecule": "COc1cc(NC(=O)COc2cccc(OC)c2)cc(OC)c1", "displacement": -4.7}, {"molecule": "COc1ccc(CCNC(=O)c2ccccc2OC)cc1OC", "displacement": -4.9}, {"molecule": "Cc1ccc(CN2CCN(N=Cc3c(O)ccc4ccccc34)CC2)c(C)c1", "displacement": 0.3}, {"molecule": "C=C(C)CSc1nnc2n(-c3ccc(OC)cc3)c(=O)c3c4c(sc3n12)CCCC4", "displacement": 3}, {"molecule": "CCc1c(C)sc(NC(=O)C2C3C=CC(C3)C2C(=O)O)c1C(=O)OC(C)C", "note": "(stereo not given)", "displacement": 7.4}, {"molecule": "CC(C)NC(=O)C1C(c2ccccc2)=C1c1ccccc1", "displacement": -4.6}, {"molecule": "CCOc1cc(/C=N/NC(=O)CSc2nc3ccccc3n2Cc2ccccc2)ccc1O", "displacement": -9.5}, {"molecule": "O=C(C1CCCCC1)N1CCN(c2ccc([N+](=O)[O-])cc2)CC1", "displacement": -5.1}, {"molecule": "NS(=O)(=O)c1cccc(NC(=O)c2ccc(Br)o2)c1", "displacement": -2.6}, {"molecule": "CCc1cc(C)cc(OCCOc2ccc(/C=N/n3cnnc3)cc2)c1", "displacement": -2.6}, {"molecule": "O=C1C2C(C(=O)N1/N=C/c1ccc([N+](=O)[O-])cc1)C1C=CC2C12CC2", "note": "(stereo not given)", "displacement": 4.4}, {"molecule": "CC(=NCc1ccccc1)c1c(C)[nH]n(-c2nc3ccccc3s2)c1=O", "displacement": 12.2}, {"molecule": "NC1=NC(=O)/C(=C/c2ccccc2[N+](=O)[O-])S1", "displacement": 11}, {"molecule": "C=CCN=C(C)C1=C(O)C(C(=O)OC)C(C)(C)CC1=O", "note": "(stereo not given)", "displacement": -6.4}, {"molecule": "O=C(c1cccc([N+](=O)[O-])c1)c1ccc2c(c1)C(=O)N(c1ccccn1)C2=O", "displacement": 4.4}, {"molecule": "Cc1ccc(C(=O)Nc2ccc(S(=O)(=O)N=C(N)N)cc2)cc1", "displacement": -3.2}, {"molecule": "COc1ccc(CCNc2cc(N3CCCC3)ccc2[N+](=O)[O-])cc1OC", "displacement": 0}, {"molecule": "O=C(Nc1ccc(Br)cn1)c1cc(F)c(F)cc1Cl", "displacement": 9.1}, {"molecule": "O=C(c1ccccc1F)N1CCN(c2ccc([N+](=O)[O-])cc2C(F)(F)F)CC1", "displacement": 12.4}, {"molecule": "Oc1ccc(/C=N/Nc2cc(N3CCCC3)nc(N3CCCC3)n2)cc1O", "displacement": 15.5}, {"molecule": "COc1cccc(/C=C2/C(=O)NN(c3ccc(I)cc3)C2=O)c1", "displacement": 7.8}, {"molecule": "CC1CCC/C(=C(\\C#N)c2nc(-c3cc4ccccc4oc3=O)cs2)C1", "note": "(stereo not given)", "displacement": -1.3}, {"molecule": "CC(C)(C)N(C=C(Cl)Cl)C(=O)NC1CCCCC1", "displacement": -7.7}, {"molecule": "CCOC(=O)CSc1nnc(-c2cccs2)n1-c1ccccc1", "displacement": -6.5}, {"molecule": "CC1(C)CC(NC(=O)/C=C/C(=O)O)CC(C)(C)N1", "displacement": 10}, {"molecule": "Cc1c(OCC(=O)c2ccccc2)ccc2c(-c3ccccc3)cc(=O)oc12", "displacement": 1.4}, {"molecule": "CC(C)c1cccc(C(C)C)c1OCCCCN1CCOCC1", "displacement": 5.8}, {"molecule": "COc1ccc(Cc2noc(-c3ccc([N+](=O)[O-])cc3)n2)cc1OC", "displacement": -4.5}, {"molecule": "CCOC(=O)C1=C(C)NC2=C(C(=O)c3ccccc32)C1c1ccc(OC)cc1", "note": "(stereo not given)", "displacement": -8.3}, {"molecule": "Cc1cc(OCC(=O)Nc2ccc(-c3nc4ccccc4s3)c(O)c2)ccc1Cl", "displacement": 12.4}, {"molecule": "COC(=O)c1cc(-c2ccccc2)n(-c2ccccc2)n1", "displacement": 2}, {"molecule": "CCc1c(C#N)c(N)nc(SCC(=O)c2ccc(C)cc2)c1C#N", "displacement": 0.6}, {"molecule": "Cc1cccc(/C=N/NC(=O)c2cncc(Br)c2)c1O", "displacement": 2.4}, {"molecule": "CCOC(=O)C(CCOCCOc1c(C)cc(Cl)cc1Cl)C(=O)OCC", "displacement": -5.7}, {"molecule": "COc1ccc(CN2CCN(Cc3cccc(Cl)c3)CC2)cc1OC", "displacement": -10.5}, {"molecule": "O=C(NC(Cc1ccc([N+](=O)[O-])cc1)C(=O)NCc1ccco1)OCc1ccccc1", "note": "(stereo not given)", "displacement": 12.8}, {"molecule": "COc1ccc(NC(=O)CC2CCCCC2)cc1", "displacement": 2}, {"molecule": "CN1CCN(c2ccc(/C=C3\\Sc4ccccc4C3=O)cc2[N+](=O)[O-])CC1", "displacement": 8}, {"molecule": "O=C(Nc1ccc(O)c(-c2nc3ccccc3o2)c1)c1ccc2c(c1)OCCO2", "displacement": 3.5}, {"molecule": "Oc1ccc(O)c([S+]2CCCC2)c1", "displacement": 10.3}, {"molecule": "COc1ccc(-c2nnc(-c3cccc([N+](=O)[O-])c3)o2)cc1", "displacement": 5.8}, {"molecule": "CCOC(=O)C1=C(C)N=c2s/c(=C\\c3ccc(OC)c(OC)c3OC)c(=O)n2C1c1ccc(Cl)cc1", "note": "(stereo not given)", "displacement": 152}, {"molecule": "CS(=O)(=O)Nc1nnc(SCC(=O)N(c2ccccc2)c2ccccc2)s1", "displacement": 0.9}]}]}
